Laboratory results taken from the supplement of paper PMC12217912.
This is one part of the list. The full chains were built here from the parent and the listed change. Inactive controls read about 0.05.

B1: TEV protease; numbered along this chain (parent)
chain: MGESLFKGPRDYNPISSSICHLTNESDGHTTSLYGIGFGPFIITNKHLFRRNNGTLVVQSLHGVFKVKDTTTLQQHLVDGRDMIIIRMPKDFPPFPQKLKFREPQREERICLVTTNFQTKSMSSMVSDTSCTFPSGDGIFWKHWIQTKDGQCGSPLVSTRDGFIVGIHSASNFTNTNNYFTSVPKNFMELLTNQEAQQWVSGWRLNADSVLWGGHKVFMVKPEEPFQPVKEATQL

Variants of: B1
Assay: raw area under fraction-flipped curve 0-4 h after induction (AUC4h, not background-subtracted), DNA-recorder readout of cleavage of the substrate (dimensionless); higher = more cleavage of the substrate by the protease variant
Conditions: temperature: 34 °C; time window: 0-4 h after rhamnose induction
Experimental: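 In vivo DNA recorder in E. coli TOP10(DE3) ΔrhaA at 34 °C. Each TEVp single-site mutant (parent TEVp 0) is paired with a single-site variant of the 7-mer TEVs (canonical ENLYFQ|S). The substrate sits between flexible linkers in a Bxb1-sfGFP-TEVs-SsrA fusion, so cleavage stabilises Bxb1 and speeds flipping of a recombination array, read by NGS. The value is the raw area under the fraction-flipped curve over 0-4 h after rhamnose induction (AUC4h), with ≥20 reads per time point. It is not background-subtracted; inactive controls average about 0.047.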
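Further: Bxb1 expression induced with 0.2% (w/v) L-rhamnose at OD600 near 0.5, cultures sampled hourly, flipped fraction per protease–substrate barcode pair counted by paired-end Illumina sequencing.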

| Variant | area with substrate ANLYFQS | area with substrate CNLYFQS | area with substrate DNLYFQS | area with substrate FNLYFQS | area with substrate GNLYFQS | area with substrate HNLYFQS | area with substrate INLYFQS | area with substrate KNLYFQS | area with substrate LNLYFQS | area with substrate MNLYFQS | area with substrate NNLYFQS | area with substrate PNLYFQS | area with substrate RNLYFQS | area with substrate SNLYFQS | area with substrate TNLYFQS | area with substrate VNLYFQS | area with substrate WNLYFQS | area with substrate YNLYFQS | area with substrate QNLYFQS |
| --- | --- | --- | --- | --- | --- | --- | --- | --- | --- | --- | --- | --- | --- | --- | --- | --- | --- | --- | --- |
| K221R | 0.0776 | 0.0677 | 0.0777 | 0.0751 | 0.0604 | 0.0743 | 0.0866 | 0.0632 | 0.0606 | 0.113 | 0.0697 | 0.0677 | 0.0652 | 0.0663 | 0.0724 | 0.0613 | 0.0658 | 0.0583 | – |
| T174D | 0.0645 | 0.089 | 0.0676 | 0.0436 | – | 0.0616 | 0.058 | 0.073 | 0.0706 | 0.0483 | 0.0681 | 0.0757 | 0.0704 | 0.0681 | 0.0646 | 0.0765 | 0.0631 | 0.0599 | – |
| P222H | 0.0696 | 0.0658 | 0.0665 | 0.0779 | 0.0584 | 0.06 | – | 0.0748 | 0.052 | 0.0624 | 0.0667 | 0.064 | – | 0.0519 | 0.0671 | – | 0.0476 | 0.0668 | – |
| N24Y | – | 0.0628 | – | – | – | 0.0701 | – | 0.0734 | 0.095 | – | 0.0759 | 0.0631 | – | 0.0601 | – | 0.0598 | 0.0569 | – | – |
| N24D | – | 0.0523 | 0.0684 | 0.054 | 0.0622 | 0.0555 | 0.0542 | 0.0587 | 0.0569 | 0.0493 | 0.0616 | 0.0534 | – | 0.0445 | 0.0603 | 0.0553 | 0.0529 | 0.0623 | 0.0653 |
| N24C | – | 0.0638 | 0.0763 | – | 0.0668 | 0.0606 | 0.0539 | – | 0.0713 | – | 0.0654 | 0.0616 | 0.0642 | 0.0586 | – | 0.0716 | 0.0601 | 0.06 | 0.0606 |
| G8S | – | 0.0475 | – | – | – | 0.0475 | – | – | – | – | 0.0727 | 0.0675 | – | – | 0.059 | 0.0574 | – | 0.0573 | – |
| G8P | – | 0.081 | 0.0821 | – | – | 0.0639 | – | 0.07 | – | 0.0721 | 0.0597 | – | – | 0.0709 | – | 0.0423 | – | 0.0761 | – |
| E224S | 0.0612 | 0.0857 | 0.117 | 0.0658 | – | 0.0673 | 0.0653 | – | 0.0757 | 0.0716 | – | 0.0781 | – | – | 0.0437 | – | 0.0595 | 0.0587 | – |
| E224V | 0.0634 | 0.0654 | 0.0756 | – | 0.0387 | 0.065 | 0.063 | 0.063 | 0.0454 | 0.0559 | 0.0726 | 0.0577 | – | 0.0646 | 0.0553 | – | 0.0705 | 0.0542 | 0.0745 |
| E224A | 0.0614 | 0.0655 | 0.0577 | – | – | 0.0598 | 0.065 | 0.0669 | 0.0737 | – | 0.0623 | 0.0811 | – | 0.0652 | 0.0664 | 0.0802 | 0.0701 | 0.0693 | 0.0749 |
| I167K | 0.0575 | 0.0522 | 0.0505 | 0.057 | 0.0581 | 0.0493 | 0.0532 | 0.0537 | – | 0.0396 | 0.0581 | 0.0591 | – | 0.0594 | 0.0578 | 0.0449 | 0.0592 | 0.0506 | – |
| R204H | 0.0626 | 0.0663 | 0.0959 | – | 0.0718 | 0.0496 | 0.0672 | 0.0756 | 0.0575 | 0.0559 | – | 0.0709 | – | – | 0.0656 | – | 0.0623 | 0.0656 | 0.0605 |
